Changes are numbered by the printed parent chain; changes in the protein carry UniProt numbers. Some of the results follow.
B1: CGUAUAU (DNA:RNA)
RNA: GGGAGACCGGAAUUCAGAUUGUCCCGUAUAUUUAAAUCCCGUCGUAGCCACCA
DNA 1: CAATCTGAATTCCGGTCTCCC
DNA 2: TGGTGGCTACGACGGGATT
B2: UCGUGCC (DNA:RNA)
RNA: GGGAGACCGGAAUUCAGAUUGUCCUCGUGCCUUAAAUCCCGUCGUAGCCACCA
DNA 1: CAATCTGAATTCCGGTCTCCC
DNA 2: TGGTGGCTACGACGGGATT
B3: CUGCCCG (DNA:RNA)
RNA: B2 RNA with U25C, C26U, U28C, G29C, C31G
DNA 1: CAATCTGAATTCCGGTCTCCC
DNA 2: TGGTGGCTACGACGGGATT
B4: AAUCGGC (DNA:RNA)
RNA: B2 RNA with U25A, C26A, G27U, U28C, C30G
DNA 1: CAATCTGAATTCCGGTCTCCC
DNA 2: TGGTGGCTACGACGGGATT
B5: CGCAUCC (DNA:RNA)
RNA: B1 RNA with U27C, A30C, U31C
DNA 1: CAATCTGAATTCCGGTCTCCC
DNA 2: TGGTGGCTACGACGGGATT
B6: UUACUAA (DNA:RNA)
RNA: B1 RNA with C25U, G26U, U27A, A28C, U31A
DNA 1: CAATCTGAATTCCGGTCTCCC
DNA 2: TGGTGGCTACGACGGGATT
B7: UCGACGU (DNA:RNA)
RNA: B2 RNA with U28A, G29C, C30G, C31U
DNA 1: CAATCTGAATTCCGGTCTCCC
DNA 2: TGGTGGCTACGACGGGATT
B8: GCAAACU (DNA:RNA)
RNA: B1 RNA with C25G, G26C, U27A, U29A, A30C
DNA 1: CAATCTGAATTCCGGTCTCCC
DNA 2: TGGTGGCTACGACGGGATT
B9: AGACGGC (DNA:RNA)
RNA: B2 RNA with U25A, C26G, G27A, U28C, C30G
DNA 1: CAATCTGAATTCCGGTCTCCC
DNA 2: TGGTGGCTACGACGGGATT
B10: UCGAAUU (DNA:RNA)
RNA: B2 RNA with U28A, G29A, C30U, C31U
DNA 1: CAATCTGAATTCCGGTCTCCC
DNA 2: TGGTGGCTACGACGGGATT
B11: GACGCGG (DNA:RNA)
RNA: GGGAGACCGGAAUUCAGAUUGUCCGACGCGGUUAAAUCCCGUCGUAGCCACCA
DNA 1: CAATCTGAATTCCGGTCTCCC
DNA 2: TGGTGGCTACGACGGGATT
B12: UACUCCC (DNA:RNA)
RNA: B2 RNA with C26A, G27C, G29C
DNA 1: CAATCTGAATTCCGGTCTCCC
DNA 2: TGGTGGCTACGACGGGATT
B13: CCAUCGC (DNA:RNA)
RNA: B2 RNA with U25C, G27A, G29C, C30G
DNA 1: CAATCTGAATTCCGGTCTCCC
DNA 2: TGGTGGCTACGACGGGATT
B14: AAGUCGC (DNA:RNA)
RNA: B11 RNA with G25A, C27G, G28U, G31C
DNA 1: CAATCTGAATTCCGGTCTCCC
DNA 2: TGGTGGCTACGACGGGATT
B15: GCCCUGA (DNA:RNA)
RNA: B11 RNA with A26C, G28C, C29U, G31A
DNA 1: CAATCTGAATTCCGGTCTCCC
DNA 2: TGGTGGCTACGACGGGATT
B16: CGCUCGC (DNA:RNA)
RNA: B11 RNA with G25C, A26G, G28U, G31C
DNA 1: CAATCTGAATTCCGGTCTCCC
DNA 2: TGGTGGCTACGACGGGATT
B17: UCUUUAU (DNA:RNA)
RNA: B1 RNA with C25U, G26C, A28U
DNA 1: CAATCTGAATTCCGGTCTCCC
DNA 2: TGGTGGCTACGACGGGATT
B18: GUCCAUG (DNA:RNA)
RNA: B11 RNA with A26U, G28C, C29A, G30U
DNA 1: CAATCTGAATTCCGGTCTCCC
DNA 2: TGGTGGCTACGACGGGATT
B19: UGGCCGA (DNA:RNA)
RNA: B11 RNA with G25U, A26G, C27G, G28C, G31A
DNA 1: CAATCTGAATTCCGGTCTCCC
DNA 2: TGGTGGCTACGACGGGATT
B20: CAGUGAA (DNA:RNA)
RNA: B2 RNA with U25C, C26A, C30A, C31A
DNA 1: CAATCTGAATTCCGGTCTCCC
DNA 2: TGGTGGCTACGACGGGATT
B21: GACUGAU (DNA:RNA)
RNA: B11 RNA with G28U, C29G, G30A, G31U
DNA 1: CAATCTGAATTCCGGTCTCCC
DNA 2: TGGTGGCTACGACGGGATT
B22: UAUAUGC (DNA:RNA)
RNA: B1 RNA with C25U, G26A, A30G, U31C
DNA 1: CAATCTGAATTCCGGTCTCCC
DNA 2: TGGTGGCTACGACGGGATT
B23: ACACGUU (DNA:RNA)
RNA: B2 RNA with U25A, G27A, U28C, C30U, C31U
DNA 1: CAATCTGAATTCCGGTCTCCC
DNA 2: TGGTGGCTACGACGGGATT
B24: GACUUGG (DNA:RNA)
RNA: B11 RNA with G28U, C29U
DNA 1: CAATCTGAATTCCGGTCTCCC
DNA 2: TGGTGGCTACGACGGGATT
B25: CUCUCCC (DNA:RNA)
RNA: B2 RNA with U25C, C26U, G27C, G29C
DNA 1: CAATCTGAATTCCGGTCTCCC
DNA 2: TGGTGGCTACGACGGGATT
B26: GGUACGA (DNA:RNA)
RNA: B1 RNA with C25G, U29C, A30G, U31A
DNA 1: CAATCTGAATTCCGGTCTCCC
DNA 2: TGGTGGCTACGACGGGATT
B27: CCGCGUU (DNA:RNA)
RNA: B2 RNA with U25C, U28C, C30U, C31U
DNA 1: CAATCTGAATTCCGGTCTCCC
DNA 2: TGGTGGCTACGACGGGATT
B28: CCUAGGC (DNA:RNA)
RNA: B1 RNA with G26C, U29G, A30G, U31C
DNA 1: CAATCTGAATTCCGGTCTCCC
DNA 2: TGGTGGCTACGACGGGATT
B29: UAGCGCU (DNA:RNA)
RNA: B2 RNA with C26A, U28C, C31U
DNA 1: CAATCTGAATTCCGGTCTCCC
DNA 2: TGGTGGCTACGACGGGATT
B30: AGUUCAG (DNA:RNA)
RNA: B1 RNA with C25A, A28U, U29C, U31G
DNA 1: CAATCTGAATTCCGGTCTCCC
DNA 2: TGGTGGCTACGACGGGATT
B31: CAAACUU (DNA:RNA)
RNA: B1 RNA with G26A, U27A, U29C, A30U
DNA 1: CAATCTGAATTCCGGTCTCCC
DNA 2: TGGTGGCTACGACGGGATT

molecular target: T1, RBFOX1 RRM RbFoxmut (Fox-RRM*) (Homo sapiens, UniProt Q9NWB1 109-208, R118D;E147R;N151S;E152T); assay: EMSA; HiTS-Eq, 1 nM pool, 10 min; buffer printed only for the single-RNA assays: 10 mM Tris pH 7.5, 150 mM NaCl, 3.4 mM EDTA, 0.001% NP-40, 30 C; details: tags: His6 N-terminal (pET28a); label: 5' 32P
T1 sequence: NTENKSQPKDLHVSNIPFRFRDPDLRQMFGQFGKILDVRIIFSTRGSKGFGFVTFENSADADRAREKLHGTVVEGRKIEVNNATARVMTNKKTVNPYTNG
In short: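 These values rest on relative association constants, computed from read-count changes of each RNA species versus the control reaction and normalised to the cognate motif. Reads came from free RNA recovered by 8% native PAGE after purified RbFox RRM (wild type or mutant) at increasing concentrations was equilibrated for 10 min in 50 µL with 1 nM of a 5′-radiolabelled pool with 7 randomized nucleotides and DNA-annealed flanks.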

Binder | binding signal
B1 | 0.12 KA relative to UGCAUGU
B2 | 0.313 KA relative to UGCAUGU
B3 | 0.102 KA relative to UGCAUGU
B4 | 0.0881 KA relative to UGCAUGU
B5 | 0.337 KA relative to UGCAUGU
B6 | 0.102 KA relative to UGCAUGU
B7 | 0.0739 KA relative to UGCAUGU
B8 | 0.0551 KA relative to UGCAUGU
B9 | 0.1 KA relative to UGCAUGU
B10 | 0.0823 KA relative to UGCAUGU
B11 | 0.0687 KA relative to UGCAUGU
B12 | 0.0784 KA relative to UGCAUGU
B13 | 0.0629 KA relative to UGCAUGU
B14 | 0.0916 KA relative to UGCAUGU
B15 | 0.0714 KA relative to UGCAUGU
B16 | 0.0954 KA relative to UGCAUGU

Binder | binding signal
B17 | 0.094 KA relative to UGCAUGU
B18 | 0.151 KA relative to UGCAUGU
B19 | 0.135 KA relative to UGCAUGU
B20 | 0.106 KA relative to UGCAUGU
B21 | 0.171 KA relative to UGCAUGU
B22 | 0.106 KA relative to UGCAUGU
B23 | 0.0981 KA relative to UGCAUGU
B24 | 0.129 KA relative to UGCAUGU
B25 | 0.0711 KA relative to UGCAUGU
B26 | 0.165 KA relative to UGCAUGU
B27 | 0.0775 KA relative to UGCAUGU
B28 | 0.0915 KA relative to UGCAUGU
B29 | 0.0847 KA relative to UGCAUGU
B30 | 0.0995 KA relative to UGCAUGU
B31 | 0.075 KA relative to UGCAUGU
